According to article PMC4140803 (PLoS ONE, 2014):

Tested on: HIV-1RF V82F/184V
Experiment: microbe, parasite or virus in culture
Format: cell-based
Settings: Human immunodeficiency virus 1, C8166, read-out: EC50s

| SMILES | EC50 [nM] |
| --- | --- |
| Nc1ccn([C@@H]2CS[C@H](CO)O2)c(=O)n1 [3TC, lamivudine, reference compound] | > 1000 |
| [N-]=[N+]=N[C@]1(CO)O[C@@H](n2ccc(N)nc2=O)[C@@H](F)[C@@H]1O [FNC, 2′-deoxy-2′-β-fluoro-4′-azidocytidine] | 0.37 ± 0.02 |
